Target: T1, human CD47 on hRBCs (Homo sapiens, UniProt Q08722)
T1 construct: freshly isolated human red blood cells (hRBCs), which display CD47 on their surface; endogenous in cells; host or cells: human red blood cells from blood of normal volunteers
Experiment: Flow cytometry binding to freshly isolated human red blood cells
Settings: compared with OV10 hCD47 tumor cells
Experimental: Binding activities of chimeric and humanized VLX4, VLX8, and VLX9 mAbs to human CD47 on hRBCs were also determined using flow cytometry.

T1 sequence (Q08722 19-323): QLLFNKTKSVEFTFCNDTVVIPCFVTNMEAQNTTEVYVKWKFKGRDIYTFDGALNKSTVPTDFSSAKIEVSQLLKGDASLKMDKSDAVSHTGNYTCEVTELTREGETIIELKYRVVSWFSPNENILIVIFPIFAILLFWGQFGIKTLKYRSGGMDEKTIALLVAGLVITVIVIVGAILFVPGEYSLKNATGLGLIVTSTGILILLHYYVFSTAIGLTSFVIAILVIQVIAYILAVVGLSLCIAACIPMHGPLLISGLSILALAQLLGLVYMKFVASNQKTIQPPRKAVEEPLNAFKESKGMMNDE

| Molecule | binding to hRBCs (in words) |
| --- | --- |
| VLX8hum_06 IgG2: humanized anti-CD47 mAb (antibody) heavy: QVQLVQSGAEVKKPGASVKVSCKASGYSFTNYYIHWVRQAPGQGLEWMGYIDPLNGDTTYNQKFKGRVTMTRDTSTSTVYMELSSLRSEDTAVYYCARGGKRAMDYWGQGTLVTVSSASTKGPSVFPLAPCSRSTSESTAALGCLVKDYFPEPVTVSWNSGALTSGVHTFPAVLQSSGLYSLSSVVTVPSSNFGTQTYTCNVDHKPSNTKVDKTVERKCCVECPPCPAPPVAGPSVFLFPPKPKDTLMISRTPEVTCVVVDVSHEDPEVQFNWYVDGVEVHNAKTKPREEQFNSTFRVVSVLTVVHQDWLNGKEYKCKVSNKGLPAPIEKTISKTKGQPREPQVYTLPPSREEMTKNQVSLTCLVKGFYPSDIAVEWESNGQPENNYKTTPPMLDSDGSFFLYSKLTVDKSRWQQGNVFSCSVMHEALHNHYTQKSLSLSPGK light: DIQMTQSPSSLSASVGDRVTITCRASQSISNYLNWYQQKPGKAPKLLIYYTSRLYSGVPSRFSGSGSGTDFTLTISSLQPEDFATYYCQQGNTLPWTFGQGTKVEIKRTVAAPSVFIFPPSDEQLKSGTASVVCLLNNFYPREAKVQWKVDNALQSGNSQESVTEQDSKDSTYSLSSTLTLSKADYEKHKVYACEVTHQGLSSPVTKSFNRGEC | Kd values similar to the values obtained for OV10 hCD47 tumor cells |
| VLX8hum_07 IgG2: humanized anti-CD47 mAb (antibody) heavy: QVQLVQSGAEVKKPGSSVKVSCKASGYSFTNYYIHWVRQAPGQGLEWMGYIDPLNGDTTYNQKFKGRVTITADESTSTAYMELSSLRSEDTAVYYCARGGKRAMDYWGQGTLVTVSSASTKGPSVFPLAPCSRSTSESTAALGCLVKDYFPEPVTVSWNSGALTSGVHTFPAVLQSSGLYSLSSVVTVPSSNFGTQTYTCNVDHKPSNTKVDKTVERKCCVECPPCPAPPVAGPSVFLFPPKPKDTLMISRTPEVTCVVVDVSHEDPEVQFNWYVDGVEVHNAKTKPREEQFNSTFRVVSVLTVVHQDWLNGKEYKCKVSNKGLPAPIEKTISKTKGQPREPQVYTLPPSREEMTKNQVSLTCLVKGFYPSDIAVEWESNGQPENNYKTTPPMLDSDGSFFLYSKLTVDKSRWQQGNVFSCSVMHEALHNHYTQKSLSLSPGK light: DIQMTQSPSSLSASVGDRVTITCRASQSISNYLNWYQQKPGKAPKLLIYYTSRLYSGVPSRFSGSGSGTDFTLTISSLQPEDFATYYCQQGNTLPWTFGQGTKVEIKRTVAAPSVFIFPPSDEQLKSGTASVVCLLNNFYPREAKVQWKVDNALQSGNSQESVTEQDSKDSTYSLSSTLTLSKADYEKHKVYACEVTHQGLSSPVTKSFNRGEC | Kd values similar to the values obtained for OV10 hCD47 tumor cells |
| VLX8hum_08 IgG2: humanized anti-CD47 mAb (antibody) heavy: EVQLVQSGAEVKKPGESLKISCKGSGYSFTNYYIHWVRQMPGKGLEWMGYIDPLNGDTTYNQKFKGQVTISADKSISTAYLQWSSLKASDTAMYYCARGGKRAMDYWGQGTLVTVSSASTKGPSVFPLAPCSRSTSESTAALGCLVKDYFPEPVTVSWNSGALTSGVHTFPAVLQSSGLYSLSSVVTVPSSNFGTQTYTCNVDHKPSNTKVDKTVERKCCVECPPCPAPPVAGPSVFLFPPKPKDTLMISRTPEVTCVVVDVSHEDPEVQFNWYVDGVEVHNAKTKPREEQFNSTFRVVSVLTVVHQDWLNGKEYKCKVSNKGLPAPIEKTISKTKGQPREPQVYTLPPSREEMTKNQVSLTCLVKGFYPSDIAVEWESNGQPENNYKTTPPMLDSDGSFFLYSKLTVDKSRWQQGNVFSCSVMHEALHNHYTQKSLSLSPGK light: DIQMTQSPSSLSASVGDRVTITCRASQSISNYLNWYQQKPGKAPKLLIYYTSRLYSGVPSRFSGSGSGTDFTLTISSLQPEDFATYYCQQGNTLPWTFGQGTKVEIKRTVAAPSVFIFPPSDEQLKSGTASVVCLLNNFYPREAKVQWKVDNALQSGNSQESVTEQDSKDSTYSLSSTLTLSKADYEKHKVYACEVTHQGLSSPVTKSFNRGEC | Kd values similar to the values obtained for OV10 hCD47 tumor cells |
| VLX8hum_09 IgG2: humanized anti-CD47 mAb (antibody) heavy: QVQLVQSGAEVKKPGSSVKVSCKASGYSFTNYYIHWVRQAPGQGLEWMGYIDPLNGDTTYAQKFQGRVTITADESTSTAYMELSSLRSEDTAVYYCARGGKRAMDYWGQGTLVTVSSASTKGPSVFPLAPCSRSTSESTAALGCLVKDYFPEPVTVSWNSGALTSGVHTFPAVLQSSGLYSLSSVVTVPSSNFGTQTYTCNVDHKPSNTKVDKTVERKCCVECPPCPAPPVAGPSVFLFPPKPKDTLMISRTPEVTCVVVDVSHEDPEVQFNWYVDGVEVHNAKTKPREEQFNSTFRVVSVLTVVHQDWLNGKEYKCKVSNKGLPAPIEKTISKTKGQPREPQVYTLPPSREEMTKNQVSLTCLVKGFYPSDIAVEWESNGQPENNYKTTPPMLDSDGSFFLYSKLTVDKSRWQQGNVFSCSVMHEALHNHYTQKSLSLSPGK light: DIQMTQSPSSLSASVGDRVTITCRASQSISNYLNWYQQKPGKAPKLLIYYTSRLYSGVPSRFSGSGSGTDFTLTISSLQPEDFATYYCQQGNTLPWTFGQGTKVEIKRTVAAPSVFIFPPSDEQLKSGTASVVCLLNNFYPREAKVQWKVDNALQSGNSQESVTEQDSKDSTYSLSSTLTLSKADYEKHKVYACEVTHQGLSSPVTKSFNRGEC | Kd values similar to the values obtained for OV10 hCD47 tumor cells |
